This is an account of results in PMC7324386.

The chains behind the UniProt entries cited, without tags or fusion partners. Residues count along the entry.
UniProt O22476, residues 24-1196: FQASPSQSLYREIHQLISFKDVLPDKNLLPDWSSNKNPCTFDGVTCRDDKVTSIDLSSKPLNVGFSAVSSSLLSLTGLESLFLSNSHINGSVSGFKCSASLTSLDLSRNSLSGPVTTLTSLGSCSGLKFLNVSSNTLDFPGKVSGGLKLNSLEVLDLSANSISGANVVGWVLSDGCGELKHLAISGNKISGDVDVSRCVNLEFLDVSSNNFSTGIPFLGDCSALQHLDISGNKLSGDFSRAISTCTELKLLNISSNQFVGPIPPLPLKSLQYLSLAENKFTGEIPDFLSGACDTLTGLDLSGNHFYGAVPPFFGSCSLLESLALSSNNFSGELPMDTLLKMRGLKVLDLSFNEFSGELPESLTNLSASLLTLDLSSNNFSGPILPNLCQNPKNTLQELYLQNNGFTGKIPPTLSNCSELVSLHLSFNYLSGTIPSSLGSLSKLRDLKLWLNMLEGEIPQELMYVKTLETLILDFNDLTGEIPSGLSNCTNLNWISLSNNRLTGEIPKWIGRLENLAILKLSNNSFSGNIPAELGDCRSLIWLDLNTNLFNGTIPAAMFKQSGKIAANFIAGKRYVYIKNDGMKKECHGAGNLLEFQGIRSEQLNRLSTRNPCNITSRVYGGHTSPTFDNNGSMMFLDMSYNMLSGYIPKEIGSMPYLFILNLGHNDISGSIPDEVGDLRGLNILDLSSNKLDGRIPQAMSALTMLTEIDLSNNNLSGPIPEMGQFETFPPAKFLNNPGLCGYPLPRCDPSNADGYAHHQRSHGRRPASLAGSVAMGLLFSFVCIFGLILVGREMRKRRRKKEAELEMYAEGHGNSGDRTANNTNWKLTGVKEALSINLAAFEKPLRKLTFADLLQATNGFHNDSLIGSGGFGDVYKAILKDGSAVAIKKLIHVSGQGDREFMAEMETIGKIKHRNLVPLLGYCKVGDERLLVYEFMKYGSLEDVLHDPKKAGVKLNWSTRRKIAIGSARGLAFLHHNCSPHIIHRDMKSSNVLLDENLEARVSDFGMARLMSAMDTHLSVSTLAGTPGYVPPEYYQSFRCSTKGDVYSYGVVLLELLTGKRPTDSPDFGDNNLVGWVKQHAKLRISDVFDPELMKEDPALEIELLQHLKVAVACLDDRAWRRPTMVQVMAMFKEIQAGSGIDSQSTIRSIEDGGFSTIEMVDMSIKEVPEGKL

No constants are given. Whether binding was seen depends on the method and setting. In cells and extracts the contact can be indirect. Tags and fused reporters may be left off the sequences shown.

This experiment addresses T1, PUX4-HA (Arabidopsis thaliana) (UniProt Q8RWU7).
T1 sequence: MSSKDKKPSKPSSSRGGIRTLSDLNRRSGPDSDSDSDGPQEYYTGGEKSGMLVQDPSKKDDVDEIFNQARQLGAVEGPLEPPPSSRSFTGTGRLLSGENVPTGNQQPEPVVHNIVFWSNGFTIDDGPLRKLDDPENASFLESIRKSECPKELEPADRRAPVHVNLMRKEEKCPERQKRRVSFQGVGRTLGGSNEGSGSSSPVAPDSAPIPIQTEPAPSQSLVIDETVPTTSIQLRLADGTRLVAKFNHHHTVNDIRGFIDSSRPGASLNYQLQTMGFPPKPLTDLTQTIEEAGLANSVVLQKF
As to the kind of experiment: co-IP; transient coexpression in N. benthamiana leaves; protein extract immunoprecipitated with anti-HA antibody, immunoblotted with anti-HA and anti-GFP. (A western blot detects proteins with antibodies after separation by electrophoresis.)

For BRI1-GFP (from UniProt O22476 24-1196), the binding result is “no binding”.
